Structures are written as SMILES. Out of some 310,000 compounds screened, about 2,200 (0.71%) showed an effect of 50% or more. Effects have a minus sign here. The list shows a part of the results.

Sequence of human ether-à-go-go-related gene (hERG) potassium channel (Q12809 whole entry, looked up): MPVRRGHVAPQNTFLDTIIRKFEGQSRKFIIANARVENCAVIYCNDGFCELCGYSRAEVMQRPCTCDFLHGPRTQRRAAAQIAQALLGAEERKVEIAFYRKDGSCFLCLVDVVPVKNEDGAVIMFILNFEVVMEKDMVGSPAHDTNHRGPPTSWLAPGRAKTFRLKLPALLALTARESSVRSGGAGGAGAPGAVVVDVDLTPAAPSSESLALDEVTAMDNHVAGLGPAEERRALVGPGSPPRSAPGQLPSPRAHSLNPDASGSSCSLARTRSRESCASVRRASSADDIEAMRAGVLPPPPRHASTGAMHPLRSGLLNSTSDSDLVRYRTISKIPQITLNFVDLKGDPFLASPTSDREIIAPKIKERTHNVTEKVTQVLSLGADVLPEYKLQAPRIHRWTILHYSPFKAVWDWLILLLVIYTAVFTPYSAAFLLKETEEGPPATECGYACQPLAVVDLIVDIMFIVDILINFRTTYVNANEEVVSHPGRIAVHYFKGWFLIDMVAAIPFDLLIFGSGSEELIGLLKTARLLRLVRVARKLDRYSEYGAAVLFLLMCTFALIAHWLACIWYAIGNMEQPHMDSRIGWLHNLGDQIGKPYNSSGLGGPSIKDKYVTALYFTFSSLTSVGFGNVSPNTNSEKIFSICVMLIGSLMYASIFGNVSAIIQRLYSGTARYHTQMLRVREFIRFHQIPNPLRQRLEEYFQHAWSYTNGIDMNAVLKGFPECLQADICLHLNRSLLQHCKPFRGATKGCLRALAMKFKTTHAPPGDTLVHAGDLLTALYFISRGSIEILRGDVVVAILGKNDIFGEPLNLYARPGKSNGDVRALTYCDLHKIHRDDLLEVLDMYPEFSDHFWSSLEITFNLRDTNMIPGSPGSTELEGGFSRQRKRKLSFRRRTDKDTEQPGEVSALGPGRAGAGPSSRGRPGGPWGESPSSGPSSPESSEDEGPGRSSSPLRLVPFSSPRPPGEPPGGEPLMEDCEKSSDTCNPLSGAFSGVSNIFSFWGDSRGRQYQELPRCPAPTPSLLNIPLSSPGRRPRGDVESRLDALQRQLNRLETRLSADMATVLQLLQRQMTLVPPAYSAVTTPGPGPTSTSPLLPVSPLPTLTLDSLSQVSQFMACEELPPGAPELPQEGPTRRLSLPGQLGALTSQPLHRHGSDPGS

This experiment has as its target human ether-à-go-go-related gene (hERG) potassium channel (human, UniProt Q12809). Briefly: primary screen, population patch clamp on CHO cells stably expressing hERG.
As for `Cc1ccc(S(=O)(=O)Nc2c(C)nn(C)c2C)cc1C`, the “hERG current change (%, negative = inhibition) at 1uM” value is given as 17.9%.
For `[O-]/[N+](=C\c1cccc(Br)c1)c1ccccc1`, the “hERG current change (%, negative = inhibition) at 1uM” value was 14.6%.
The result for `COc1cccc(C#Cc2c(C=O)n(C)c3ccccc23)c1` reads 11.3%.
In the case of `O=C(CCn1c(=O)oc2ccccc21)N1CCN(c2ccccc2F)CC1`, the “hERG current change (%, negative = inhibition) at 1uM” value was -3.11%.
The result for `Cc1cccc(N2CCN(C(=O)C3CC(=O)N(C4CCCC4)C3)CC2)c1C` (stereo not drawn) reads -19.4%.
Regarding `CC1CC(C)CN(C(=O)COC(=O)c2ccc3c(c2)OCO3)C1` (stereo not drawn), the “hERG current change (%, negative = inhibition) at 1uM” value is listed as -4.84%.
The result for `Cc1cc(C)c2c(=O)cc(C(F)(F)F)oc2n1` reads 19.9%; that for `CCN1CCN(CNC(=O)c2cnccn2)CC1`, 16.1%; that for `Cc1ccc(C(O)Cn2nc(C)cc2C)cc1` (stereo not drawn), 7.45%.
With `Fc1ccc(/C=N/Nc2nn[nH]n2)cc1`, the “hERG current change (%, negative = inhibition) at 1uM” value worked out at 7.47%.
On to `CCc1ccc2[nH]c(=O)c(C(c3nnnn3CCOC)N3CCN(c4ccccc4F)CC3)cc2c1` (stereo not drawn), for which the “hERG current change (%, negative = inhibition) at 1uM” value was determined as 3.84%.
As to `Cc1ccc2cc(CN(c3cccc(C)c3C)S(=O)(=O)c3ccccc3)c(=O)[nH]c2c1`, the “hERG current change (%, negative = inhibition) at 1uM” value was found to be 16.1%.
For the molecule `CCCN1CCN(C(=O)Cn2c(=O)oc3cc(S(=O)(=O)NCc4ccccc4)ccc32)CC1`, the “hERG current change (%, negative = inhibition) at 1uM” value was determined as 9.92%.
Turning to `FC(F)(F)c1cccc(CON=C2CCN(c3ncc(C(F)(F)F)cc3Cl)CC2)c1`, the “hERG current change (%, negative = inhibition) at 1uM” value was -13.8%.
As for `Cc1cc(=O)oc2c1c(C)nn2-c1ccc(Br)cc1`, the figure is 9.89%.
On to `CN(Cc1ccccc1F)c1nc(-c2cccs2)nc2ccccc12`, for which the “hERG current change (%, negative = inhibition) at 1uM” value was found to be 5.94%.
On to `CCc1ccc(CN(C)C(=O)CCc2nnc(Cc3cccc(C)c3)o2)nc1`, for which the “hERG current change (%, negative = inhibition) at 1uM” value is listed as -7.57%.
For the molecule `CCOC(=O)c1ccccc1N/C=C1\CCCCC1=O`, the “hERG current change (%, negative = inhibition) at 1uM” value stood at 7.56%.
Consider `CC(C)(CNCC(O)c1ccccc1)N1CCOCC1` (stereo not drawn), for which the “hERG current change (%, negative = inhibition) at 1uM” value amounted to 9.77%.
Regarding `COc1ccc(C)cc1NC(=O)c1nnn(CCc2ccccc2)c1N`, the “hERG current change (%, negative = inhibition) at 1uM” value turned out to be 0.503%.
Turning to `CC(C)(C)n1nnnc1C(c1cccc(C(F)(F)F)c1)N1CCOCC1` (stereo not drawn), the “hERG current change (%, negative = inhibition) at 1uM” value is 10%.
With `Cc1c(NC(=O)/C(C#N)=C/c2ccc(-c3cc(Cl)ccc3Cl)o2)c(=O)n(-c2ccccc2)n1C`, the “hERG current change (%, negative = inhibition) at 1uM” value stood at 6.3%.
As for `Cc1ccccc1OCC(=O)Nc1ccncc1`, the figure is 9.84%; as for `CC(=O)Nc1ccc2nc(NS(=O)(=O)c3ccc(C)cc3)sc2c1`, 4.57%.
With `Cc1c(-c2ccccc2)nc2ccccc2c1C(=O)Oc1ccc([N+](=O)[O-])cc1`, the “hERG current change (%, negative = inhibition) at 1uM” value was found to be 6.3%.
As for `CCCCn1c(CCCNC(=O)CC)nc2ccccc21`, the “hERG current change (%, negative = inhibition) at 1uM” value is listed as -3.85%.
As for `CCOC(=O)N1CCN(C(=O)c2cc(-c3ccncc3)nc3ccccc23)CC1`, the “hERG current change (%, negative = inhibition) at 1uM” value is reported as -8.95%.
Consider `CN(C)CCCNS(=O)(=O)c1ccc(Cl)s1`, for which the “hERG current change (%, negative = inhibition) at 1uM” value came to 10.9%.
With `CC(C)(CNC(=O)c1ccc(NS(=O)(=O)c2ccc(F)c(F)c2)cc1)N1CCOCC1`, the “hERG current change (%, negative = inhibition) at 1uM” value is given as -1.84%.
Take `Cc1cc(C)n(-c2ccc(Cl)c(C(=O)OCC(=O)N3CCCCC3C)n2)n1` (stereo not drawn): the “hERG current change (%, negative = inhibition) at 1uM” value was -0.369%.
`COc1ccccc1NC(=O)c1ccc(NC(=O)COC(=O)c2ccc(O)cc2)cc1`: the “hERG current change (%, negative = inhibition) at 1uM” value amounted to 9.89%.
Regarding `CC1=C(C(=O)NC2CCCc3c2cnn3-c2cccc(C)c2C)OCCO1` (stereo not drawn), the “hERG current change (%, negative = inhibition) at 1uM” value amounted to 14.5%.
In the case of `CCN(CC)S(=O)(=O)c1ccc(OC)c(NC(=O)CCc2c(C)noc2C)c1`, the “hERG current change (%, negative = inhibition) at 1uM” value was 9.48%.
For `CCC(C)Sc1ccc([C@H]2N[C@@](Cc3ccccc3)(C(=O)OC)[C@H]3C(=O)N(CC)C(=O)[C@@H]23)cc1OC.O=C(O)C(F)(F)F` (stereo partly drawn), the “hERG current change (%, negative = inhibition) at 1uM” value is 12.9%.
Turning to `CC(=O)N1CCc2cc(S(=O)(=O)NC3CCCCC3)ccc21`, the “hERG current change (%, negative = inhibition) at 1uM” value was 8.6%.
For the molecule `COC(=O)CCC(=O)NN1C(=O)c2ccccc2C1=O`, the “hERG current change (%, negative = inhibition) at 1uM” value stood at 5.45%.
Take `CCCc1cc(=O)[nH]c(SCC(=O)Nc2cccc3ccccc23)n1`: the “hERG current change (%, negative = inhibition) at 1uM” value is reported as 6.72%.
As for `O=C(NC1CCCc2c1cnn2-c1ccc(F)cc1F)c1ccccn1` (stereo not drawn), the figure is 11.8%; as for `CCn1c(=O)[nH]c(=O)c2c(N)c(C(=O)c3cc(F)ccc3F)sc21`, -29.3%.
Turning to `COc1ccc(CN2CCN(CCC(C)C)C(CCO)C2)cc1Cn1cccn1` (stereo not drawn), the “hERG current change (%, negative = inhibition) at 1uM” value is -6.89%.
As for `CC(C)Cn1c(SCC(=O)N2CCN(S(=O)(=O)c3ccccc3)CC2)nc2ccccc21`, the “hERG current change (%, negative = inhibition) at 1uM” value is 27.7%.
`CCOC(=O)/C(=C/C=C1\Sc2ccccc2N1CC)C(C)=O`: the “hERG current change (%, negative = inhibition) at 1uM” value is reported as 10.3%.
As for `CC(C)(C)NC(=O)NC(=O)COC(=O)Cc1ccc(Cl)cc1Cl`, the figure is 10.3%; as for `Cc1cccc(-c2nnc(SCC(=O)NCc3ccc4c(c3)OCO4)n2C)c1`, -0.318%.
`COc1ccc(C(=O)CC2OC(=O)c3c2ccc(OC)c3OC)cc1` (stereo not drawn): the “hERG current change (%, negative = inhibition) at 1uM” value is recorded as 8.46%.

The record behind these values is PMC4336329 (PLoS ONE, 2015).
